Test results published in patent US20220251191A1 (ARCH ONCOLOGY, published 2022).

Assays:
[1] = target: T1, recombinant Fc tagged IL-2 Receptor-beta (IL-2Rβ) (Sino Biologicals #10696-H02H) (UniProt P14784 27-239); experiment: TR-FRET, Exp 1
T1 construct: Bought reagent; also called IL-15Rβ; β receptor; not shown: Fc domain tag (detected with α-human IgG)
T1 sequence (looked up): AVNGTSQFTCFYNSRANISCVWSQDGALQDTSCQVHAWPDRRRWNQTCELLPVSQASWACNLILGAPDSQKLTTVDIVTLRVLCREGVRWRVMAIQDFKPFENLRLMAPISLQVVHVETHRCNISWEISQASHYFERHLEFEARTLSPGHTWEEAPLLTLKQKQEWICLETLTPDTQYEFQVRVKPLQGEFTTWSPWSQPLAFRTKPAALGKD
Protocol: (§1) Continuously over the next 30 minutes, fluorescence for donor signal (337 nm excitation/620 nm emission) and acceptor signal (337 nm excitation/655 nm emission) are read. The TR-FRET binding signal is determined by taking the ratio of acceptor signal over donor signal and multiplying by 10,000. […] Equilibrium values are then fit to a standard equilibrium equation assuming single site binding using the graphing program GraFit (Erithacus Software).

[2] = target: T2, IL-15Rβ with 20 nM receptor γ (UniProt P14784 27-239; P31785 23-262); experiment: TR-FRET, with 20 nM receptor γ against without (FIG. 12)
T2 construct: Mixture of IL-2Rβ-Fc and receptor γ in the TR-FRET assay; also called IL-15Rβ with the γ subunit; IL-15 with γ; not shown: Fc domain tag
T2 sequence (looked up) 1: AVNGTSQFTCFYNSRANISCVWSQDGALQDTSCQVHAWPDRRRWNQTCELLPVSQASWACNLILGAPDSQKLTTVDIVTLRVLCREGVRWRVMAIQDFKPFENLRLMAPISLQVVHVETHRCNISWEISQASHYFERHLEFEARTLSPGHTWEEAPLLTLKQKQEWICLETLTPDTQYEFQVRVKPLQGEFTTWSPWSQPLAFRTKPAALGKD
T2 sequence (looked up) 2: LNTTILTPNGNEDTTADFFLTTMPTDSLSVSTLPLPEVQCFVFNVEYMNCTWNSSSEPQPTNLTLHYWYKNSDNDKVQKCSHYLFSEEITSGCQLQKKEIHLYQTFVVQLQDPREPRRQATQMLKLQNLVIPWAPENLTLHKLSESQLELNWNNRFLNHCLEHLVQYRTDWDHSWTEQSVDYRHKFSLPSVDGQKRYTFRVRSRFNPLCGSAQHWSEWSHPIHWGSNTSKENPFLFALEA

[3] = target: T1, recombinant Fc tagged IL-2 …; experiment: TR-FRET, Exp 2
Protocol: as §1

[4] = target: T1, recombinant Fc tagged IL-2 …; experiment: TR-FRET ligand-receptor binding assay, equilibrium fit
Protocol: as §1

[5] = target: T1, recombinant Fc tagged IL-2 …; experiment: TR-FRET, previous analyses
[6] = target: T1, recombinant Fc tagged IL-2 …; experiment: TR-FRET, without receptor γ (FIG. 12)
Protocol: as §1

Kd [1]: 0.95 nM
fold increase in apparent affinity with receptor γ against without [2]: 8 fold
Kd [3]: 0.88 nM
Kd [4]: 0.95 nM
Kd [5]: 10 nM
Kd [6]: 28.5 nM
B1: IL-15 WT (in-house His6) (ligand)
chain: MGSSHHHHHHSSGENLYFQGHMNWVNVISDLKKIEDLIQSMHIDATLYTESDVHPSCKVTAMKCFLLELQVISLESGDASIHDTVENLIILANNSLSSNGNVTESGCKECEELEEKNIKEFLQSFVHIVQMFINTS
notes: also called in-house IL-15; in-house prepared rIL-15
